The values that follow come from paper PMC10726135.

This is one part of the list. At the low end of the ranking the order means little. Measured with an extract: partners may take part in the binding.

The assay deals with T1, HNF4alpha2 (COS-7 nuclear extract) (UniProt P41235).
T1 sequence: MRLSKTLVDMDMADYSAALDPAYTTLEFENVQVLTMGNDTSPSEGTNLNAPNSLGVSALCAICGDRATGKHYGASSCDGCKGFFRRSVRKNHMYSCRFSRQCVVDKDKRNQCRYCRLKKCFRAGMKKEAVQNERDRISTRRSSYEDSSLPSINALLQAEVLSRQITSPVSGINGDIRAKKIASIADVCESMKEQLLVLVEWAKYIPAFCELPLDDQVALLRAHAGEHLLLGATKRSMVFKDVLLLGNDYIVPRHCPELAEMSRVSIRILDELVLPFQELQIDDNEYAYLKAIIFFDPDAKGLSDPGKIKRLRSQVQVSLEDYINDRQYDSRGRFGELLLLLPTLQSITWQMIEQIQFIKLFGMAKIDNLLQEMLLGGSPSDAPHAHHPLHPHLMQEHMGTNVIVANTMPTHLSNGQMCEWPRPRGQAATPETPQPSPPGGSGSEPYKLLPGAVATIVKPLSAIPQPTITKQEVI
Kind of assay: protein-binding microarray. The settings on record: COS-7 nuclear extract on double-stranded Agilent 4x180k PBM; binding buffer, salt, pH and temperature not given; high values mean tight binding; double strand, one strand shown; sequences stand for … in …GCCTAGGGAGATTAGAGTATCGGTCGA
As for GTGGTTTGCTACACTGCCAAAGTTCAACCA, the binding signal (log2 normalized intensity) was 2.2.
Take GGGGTGGGAGTGCAGAGAGAGAGGGAGACA: the binding signal (log2 normalized intensity) is -1.09.
As to GTGATACCAGGGGTCATTTTATGGGAAAAC, the binding signal (log2 normalized intensity) worked out at 1.49.
For ATCTAACAAGAAGTCTGAAGGCAGGGCTTT the value was -1.12.
For CCCTCCGCAACCTTTACTCCTTGTGGTCAA the value was 2.49.
For TCTGGGATGTTGGGAGGAGTGGACTTTGAT the value was 5.99; for CTGGGATATCAGGTATTGCCCAGTATTGAT, 1.19; for CTGTTGGGGAGCAAAGGTTAGCAAGGGCCC, 2.54.
On to TGCAGGTAAAACTACATTTCCAAGACCTCT, for which the binding signal (log2 normalized intensity) was -1.11.
For CAGCCACATTCCATGAGCTGGCCTCACTAA the value was -1.14; for AAGGGCCCATGGGCTTCAGGGTAAATCCCG, -1.11.
Next, CTATGCCTTGAACTTTAAGGCACCTGCTCT: -0.636; GAGCTCGCGCCGGGCACTGATAACGCCCGC: -1.27.
For GCTCTCTGCTCTTACCTGCCAAATATTGGG, the binding signal (log2 normalized intensity) is -1.03.
Next, CCATACCTCTTGCGTGTTATCTATGGAACA: 1.5; ATGGCTAATCAGTATTGAGGCCGGAGGGCA: 1.03.
Regarding GGACTATCCCCGTCCGCGGAAGCACACACG, the binding signal (log2 normalized intensity) is -0.869.
Consider CAGCCACAAAAACCAAAGGTCACTTCGCAT, for which the binding signal (log2 normalized intensity) came to 3.47.
As to GGACGGGTAAGAGTCGTGGCCTTGCCATTG, the binding signal (log2 normalized intensity) is -0.23.
For TTCCCATTCATAAAATTACGCCACAGAGTT the value was -0.871; for GTTGTTTTTAAAAGGCTGCCTTTCCCAGAT, -1.01; for GAAAGGAGACTAAAGGTCAAAACCACCTAT, 2.78.
Next, TGAGTGGGTTCACTTTGAGCAAGATAATGA: 0.62.
For TTTAAAGAACTGGGCGAGCCCTCTGATCTG the value was -1.09; for TTGTATGTCCAAGGGTCACTCGACATTCAT, 3.02; for TAAGATTCTGGTCAAAGGTCAATGAAGCTC, 5.93.
Take AAATGTTATCATTACTTCTCAACTGATATG: the binding signal (log2 normalized intensity) worked out at 1.5.
Next, TCCTGCCTTGGAGAAGTGAACTTTGCCCTC: 10.2.
Turning to CCAGCAAACGTTCTTCTCTAACCCTCCTTT, the binding signal (log2 normalized intensity) was found to be 1.39.
For GGATGTGGGACTTAATCCTTGTCTGTTTGG the value was 1.91; for CTGGGCCCCTCGGCCGCTCCCTCCCCTCCT, 5.21.
For CTAAGAGCCTACTGAGAGGAAAGGGGTTAA the value was -1.1; for GCTGATCACTTAAAATGAGACTTCCCAGCT, -1.05; for AAGACTGCAGCAAAGTCCTCCAACTGCCAC, -1.07.
For the sequence GGCAGTGGGACAATGAAGCCTAAATGATAA, the binding signal (log2 normalized intensity) was -1.24.
For TCTGTAGTGTTGCTCAAGTCTCCTGTTTTC the value was 1.8; for AGGCTGAAGAAGTTGCTCAGTGTTCCACAG, -1.14.
For CACCCCACACACACACAGCATTCCATTCAT the value was 1.1; for GATCAAAGGAAACTGCTTGGGCCCCTCCCT, 1.83.
Consider TAATTAGACAACATCGAAGACTTCATGATA, for which the binding signal (log2 normalized intensity) is -1.03.
Next, TACCTTTGAAACCTAAGATGTCACAGGCAA: -1.16; CGTGGGCATGCCTCCCAGAGCATTGTTTAT: 0.706; TTTGAAGTTTAGAGATGCCTATAGGGTCTT: 0.736.
Consider TCAAGATGAAGCAAGAGTCCAAATTCCTAG, for which the binding signal (log2 normalized intensity) was 1.53.
Next, GAAGGACGTCAGAACTGTCCTTTAACCTCC: 3.93.
For CTGCCTTAGTCCCAGTATGGTCTCAGTAAT the value was -0.127.
Consider CGGCAGCACAAGGCGGTAGCCATGGCGGAG, for which the binding signal (log2 normalized intensity) is -1.14.
Next, GTCTGCTGCCCAGACACACAATATTATGTT: -0.79.
Regarding TTCCTTAAGATTAGTTCTTTGTAGGAAGGC, the binding signal (log2 normalized intensity) amounted to 1.22.
For GGTAGAGTCTAAGGAGGCAGTAAGATAAGG the value was -1.14.
Next, GGAAACCGCGATTAAAAATGGAACAGTAAG: -1.25.
For GTCTTATTCAGCCTCATTGATTTGAACATT the value was 2.42.
For CAGAGAAGATTAGCTCACAGGAAAGGAGAC, the binding signal (log2 normalized intensity) was -1.01.
Regarding GGCGAGTGTGCAATTAGAGCAAAGGTTACT, the binding signal (log2 normalized intensity) was 3.08.
Turning to ACAGCCCTCCAACTATGCTAAGAATGCGAA, the binding signal (log2 normalized intensity) is -1.02.
For TTCTCCTGTGATCTGGATTTTCAGGTTCCC the value was 0.467.
For CTTAGGTACTTTTCTGTTTGTCTTACTGTG the value was 1.93.
For AGAGAAGGAGCCAGAGCTTTGGGAAAAGTG the value was -1.14; for AAGCTCTTTCCCTCCACCAAGTTTCCCACA, 1.72.
In the case of TTAAACACGTTTTATTAGGGGTCAGCAAAG, the binding signal (log2 normalized intensity) is 2.14.
For ACCATGCCTATAAATTGCCTGGCTTCAATA the value was -1.11.
Next, TGCAAGGGCAGCTCCGTTTACCTAGAGGCA: -1.2.
For the sequence TTGAAGTTTTGGCCAACAGAGGGGTCAGAG, the binding signal (log2 normalized intensity) was 2.11.
Next, TGACAGCATGTTCGGCTGAGACCTGATCAG: 0.111; AATTTCTCAGATGCCAGCTAAGATCAGTAG: 0.98.
For TGGCCTTTGGCTGTTCGATGTATACAGTAT the value was 1.4.
For CCATAACCCTCAGCTCCTCTCCTCCATGGC the value was -0.695; for TTTGTTGCCTCTTTTCTGCTTTTGGAATTT, 2.71.
Consider ACCTTGTCCCTGGATTGTGTTGCACTGTTT, for which the binding signal (log2 normalized intensity) turned out to be 2.13.
Next, TTCACATTCCAGTGTTTCAAAGGAGTGTCT: 1.32; GTTTACTCATGTGGTCCTAAGACTGACCTT: 3.77; CCTCTTGCGTGTTATCTATGGAACATGGAC: 2.24.
For the sequence AGAGGAAAAAGTCCCTGGTCCCATAGGAAA, the binding signal (log2 normalized intensity) was -1.1.
